Data taken from paper PMC12040169 (PLOS Biology, 2025).
Some of the results follow.

System: T1, C. trachomatis L2/434/Bu expressing GFP (CTL2-GFP)
T1 construct: L2/434/Bu GFP intracellular growth in HeLa cells
Set-up: species or system HeLa; C. trachomatis total inclusion area by high-content imaging, normalised to DMSO
Conditions: total inclusion area; 28.5 h, 10 µM; inhibitor
Outline: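 Host cell viability was gauged from Hoechst-stained nuclei counts, while chlamydial growth was taken from total inclusion area and inclusion number per well. Cells were fixed and imaged by high-content microscopy once bulk GFP and resorufin fluorescence had been measured.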

Compound | % of control remaining
O=C(O)CC(Cc1ccc(Cl)cc1)C(=O)Nc1ccccc1I (stereo not drawn) [CBK262021] | 78.0724
CCn1cc(C(=O)O)c(=O)c2cc(F)c(N(C)CCc3ccc(OC)c(OC)c3)cc21 [CBK263070] | 78.2715
OC[C@H]1CCN(Cc2cc(Cl)ccc2OCCCn2ccnc2)C[C@H]1O [CBK306581] | 66.5622
Cc1ncccc1COC(=O)Nc1cccnc1 [CBK138237] | 123.434
CC(C)CN1C(=S)N(Cc2ccc(-c3ccccn3)cc2)[C@H]2[C@H]3OC(=O)[C@H](C[C@H]3O)[C@H]21 [CBK288938] | 81.961
Cc1nc(CN2CCCC(NCc3cccc4ccccc34)C2)no1 (stereo not drawn) [CBK304068] | 76.5927
CC1CCC(C(N)=O)CN1C(=O)c1ccc(Oc2cccc(Br)c2)nc1 (stereo not drawn) [CBK306005] | 20.4845
COCC(=O)Nc1nc(OC)cnc1/C=C\c1ccccc1 [CBK145360] | 92.0579
COc1ccccc1NC(=O)COc1cccc(Cl)c1Cl [CBK266029] | 131.309
Clc1cccc(-c2cccc(Nc3cccnc3)n2)c1Cl [CBK037800] | 77.121
O=C(NC1CC1)[C@H]1CN(Cc2ccccc2)C[C@@H]1C(=O)c1ccccc1 [CBK285264] | 77.1177
O=S1(=O)C=C(SCCN2CCCCC2)c2ccccc21 [CBK265328] | 88.9304
CC(C)N(CC(N)=O)Cc1nc(-c2cccc(C(F)(F)F)c2)no1 [CBK306287] | 48.4106
COc1cc(C=CC(=O)O)ccc1OCc1cn2cc(Cl)ccc2n1 [CBK296722] | 80.5262
Cc1c(-c2cncn2CC(=O)NC(C)(C)C)[nH]c2ccccc12 [CBK281911] | 93.1473
COc1nccnc1OC1CCN(Cc2ccc(C(F)(F)F)cc2)CC1 [CBK084243] | 99.2644
CC(C)OC(=O)N1CCC(N(C)Cc2ccc(-c3ccc(S(C)(=O)=O)cc3)cn2)CC1 [CBK165581T] | 58.1425
COC(=O)c1ccc(NC(=O)CSc2nnc(-c3ccncc3)s2)cc1 [CBK269239] | 63.1016
CC(=O)C(C)Oc1ccccc1-n1cccc1 (stereo not drawn) [CBK020334] | 75.3268
O=c1[nH]nc(-c2cccs2)n1-c1ccncc1 [CBK283868] | 96.2136
CC(=O)Nc1cccc(-n2nnnc2SCC2CCCCO2)c1 (stereo not drawn) [CBK305746] | 111.026

Compound | % of control remaining
OC(COc1ccccc1)Cn1ncnn1 (stereo not drawn) [CBK026083] | 45.0873
O=C(COC(=O)c1cc(S(=O)(=O)N2CCCCC2)ccc1Cl)c1ccccc1 [CBK261657] | 88.374
CN(C)CCCNC(=O)COc1ccccc1 [CBK262189] | 104.355
CCn1cc(C(=O)N2CCC(C(=O)O)CC2)c(=O)c2cc3c(cc21)OCO3 [CBK286713] | 85.6079
CN(C)CCN(C)S(=O)(=O)c1ccc(C(C)(C)C)cc1 [CBK059035T] | 91.0088
Fc1cccc(Cl)c1CNc1ccc(CNc2ncn[nH]2)cc1 [CBK267245] | 105.427
CCSc1nc(N)cc(O)n1 [CBK086474] | 39.5775
COc1cccc(N2C(=O)/C(=C/c3ccc(O)c(O)c3)SC2=S)c1 [CBK263096] | 64.5442
Cc1cc(C(=O)N2CCC(c3nn(C)c4ncccc34)CC2)cs1 [CBK284987] | 86.5898
OCc1ccc(-c2cncc(-c3ccc(O)cc3)n2)cc1 [CBK123792] | 101.166
O=C(O)c1ccc2[nH]c3c(c2c1)CCCC3 [CBK001252] | 98.6454
CCCOc1ccc(CCNc2ncnc(N)n2)cc1 [CBK262744] | 78.7574
CCCCN(C(C)=O)c1c(CC)nc2ccc(C(=O)NCc3ccccc3OC)cn12 [CBK145761] | 94.9937
COc1ccc(NC(=O)CC2NC3CCCCC3NC2=O)cc1 (stereo not drawn) [CBK266488] | 102.757
CCCNC(=O)c1ccc(C)c(NC(=O)N[C@@H](CO)c2ccccc2)c1 [CBK306609] | 98.4445
CCOC(=O)C1CCN(S(=O)(=O)c2ccc(OC)c(C)c2C)CC1 [CBK268955] | 110.767
Cc1cc(-c2nn3c(-c4ccccc4)nnc3s2)c2ccccc2n1 [CBK267187] | 118.291
CCc1c(C)nc2ccccc2c1SCCOC(=O)Nc1ccc(OC)cc1 [CBK155554T] | 92.3916
O=C1c2cccc3cccc(c23)C(=O)N1CCN1CCN(S(=O)(=O)c2ccccc2[N+](=O)[O-])CC1 [CBK262530] | 84.7056
COc1ccc(CN2C(=S)N(c3ccc(Cl)cc3)[C@H]3[C@@H]2[C@H]2OC(=O)[C@@H]3C[C@H]2O)cc1 [CBK288935] | 113.628
c1ccc2c(c1)NC(c1ccncc1)n1nnnc1-2 (stereo not drawn) [CBK288171] | 87.7209

Compound | % of control remaining
Cc1sc2nc(C(C)N3CCN(Cc4ccco4)CC3)[nH]c(=O)c2c1C (stereo not drawn) [CBK306066] | 36.2645
C(=C\c1nccnc1OC(c1ccccc1)c1ccccc1)/c1ccccc1 [CBK106878] | 108.843
O=C1N=C(NC2CCCCCC2)SC1CC(=O)N1CCCC1 (stereo not drawn) [CBK063342] | 92.7976
O=C(O)CCC(=O)Nc1ccccc1C(=O)Nc1ccccc1 [CBK058571] | 89.2905
Cc1ccnc(NCC2CCN(c3ccc4nnnn4n3)C2)c1 (stereo not drawn) [CBK306348] | 19.9977
CSCCC(=O)Nc1ccc2ncccc2c1 [CBK159818] | 91.0392
Cc1cccc(C)c1NC(=O)CN1CCCN(c2nccc(OCC3COc4ccccc4O3)n2)CC1 (stereo not drawn) [CBK083974] | 122.031
C=CCn1c(-c2sc(NC(=O)c3cc4ccccc4s3)nc2C)n[nH]c1=S [CBK295303] | 95.8474
Cc1ccccc1CN1CC[C@H]2[C@@H](C1)[C@H](c1ccsc1)CN2C(=O)c1ccccc1 [CBK285618] | 94.5586
COC(=O)CC[C@H]1CNC(=O)[C@@H]2[C@@H](CCN2S(C)(=O)=O)N1C [CBK289019] | 103.349
Cn1cc(CNCC2CCN(c3ccccc3)C2)c(-c2ccncc2)n1 (stereo not drawn) [CBK306317] | 5.127
O=C1COc2ccc(S(=O)(=O)NCCOc3ccccc3)cc2N1 [CBK268480] | 88.0319
COc1ccc2c(-n3cncn3)ccnc2c1 [CBK025957] | 131.093
CCN(CC)C(=O)c1ccccc1NS(=O)(=O)c1cc(Br)c(Cl)s1 [CBK045424] | 74.4056
CN(C)c1ccc(CC(=O)N2CCCc3ccccc32)cc1 [CBK200347] | 124.905
Cc1ccc(-c2ncc(OC3CCN(C)CC3)nc2N)c(C)c1 [CBK145139] | 90.0466
CCCc1[nH]nc(O)c1-c1ccc(OC)cc1 [CBK075135] | 103.13
O=C(CCn1c(-c2ccncc2)cc2cccnc21)N1CCCC1 [CBK282151] | 95.0276
Cc1c(N2C(=O)/C(=C3\C(=O)Nc4ccc([N+](=O)[O-])cc43)SC2=S)c(=O)n(-c2ccccc2)n1C [CBK263071] | 81.8348
NC1=NC(=O)C2(COC(c3cccnc3)OC2)S1 (stereo not drawn) [CBK019981] | 81.4432
O=C(Nc1ccccc1C(=O)N1CCCC1)c1cc(=O)[nH]c2ccccc12 [CBK295664] | 124.876

Compound | % of control remaining
CN(C)CCCOc1nccnc1N1CCCC1 [CBK113427] | 91.6409
O=C1NCCN(C(=O)c2[nH]nc3c2CCCCC3)C1Cc1ccccc1-c1ccc(F)cc1 (stereo not drawn) [CBK285831] | 107.008
O=C1CC(c2ccco2)CC(=O)C1=CNCCN1CCNCC1 (stereo not drawn) [CBK263668] | 105.76
NC(=O)COc1ccc(CNC(=O)CN2CCCCCC2)cc1 [CBK306332] | 30.8894
CCn1c(CC2CCN(c3ncc(C#N)c(N)n3)CC2)nn(C)c1=O [CBK306788] | 85.7922
OC1(c2ccc(F)cc2)CC2CCC(C1)N2CC1=CCCOC1 (stereo not drawn) [CBK282942] | 75.0028
Cc1ccc(NC(=S)N2CCCC2C(=O)O)c(C)c1 (stereo not drawn) [CBK007148] | 79.5989
CC1(C)Cc2nc(-c3ccccc3)nc(SCC(=O)NCCc3ccccc3)c2CO1 [CBK267205] | 113.307
CC(=O)Nc1ccc(-c2nc(-c3ccc(-c4ccccc4)cc3)c(-c3ccc(-c4ccccc4)cc3)[nH]2)cc1 [CBK262620] | 102.103
CN(C)/N=C\c1cccc(O)c1 [CBK015814] | 39.4445
COc1ccc(NC(=O)c2cc(C(C)C)n(-c3nc4ccccc4s3)n2)cc1 [CBK287667] | 79.8943
COc1ccc(C(=O)NNC(=O)c2cccc(O)c2)cc1 [CBK262594] | 88.4414
CC(=O)N1CCN(CC(O)Cn2c3ccccc3c3ccccc32)CC1 (stereo not drawn) [CBK305588] | 39.3486
CC(=O)N1CCC(O)(C2(C)OC(NC3C4CC5CC(C4)CC3C5)=NC2=O)CC1 (stereo not drawn) [CBK138181] | 88.5764
Clc1cc2nc(Sc3ccccn3)c(N3CCCC3)nc2cc1Cl [CBK093754] | 90.0615
COc1cc(CN2CCN(c3ccccn3)CC2)ccc1OCc1ccccc1 [CBK261906] | 97.4383
CCCc1ccc(S(=O)(=O)N2CCN(Cc3ccc4c(c3)OCO4)CC2)cc1 [CBK074735] | 78.1522
Cc1ccc2cc(CN(Cc3ccc(N(C)C)cc3)C(=O)NC3CCCCC3)c(=O)[nH]c2c1C [CBK132070] | 51.8488
